In PubChem BioAssay AID602179 (National Center for Advancing Translational Sciences (NCATS), 2012):
Among all 390,000 compounds or so, about 360 (0.092%) were called active. Inconclusive means that the source gave no clear call. Such entries were picked first, then a sample of the others. Calls follow the shape of the dose curve; as a rule, active = well fitted inhibition curve with a large enough effect; inconclusive = small, poorly fitted or top-dose-only effect; inactive = no such curve, though single readings can be large or run the other way. Potencies beside an inconclusive call are fits to weak or partial responses and may not hold up.

Target: Isocitrate dehydrogenase [NADP] cytoplasmic (Homo sapiens) (UniProt O75874)
Assay: qHTS for Inhibitors of mutant isocitrate dehydrogenase 1 (IDH1): qHTS; also: nearly all actives have a fitted effect of over 65% in size
Settings: IDH1-R132H enzyme, NADPH consumption, diaphorase/resazurin fluorescence; series mostly up to 76.6 µM; activity change, negative = inhibition: at the top concentration
Summary of the method: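 IDH1-R132H (0.5 ug/mL dispensed) in pH 7.5 Tris buffer was preincubated 30 min with compound, then given a substrate mix of 0.016 mM NADPH and 2 mM alpha-KG for 80 min at room temperature; remaining NADPH was read by diaphorase/resazurin fluorescence.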
% is scaled to controls: 0 for no effect and ±100 for the full control effect; potency is read from the fitted curve at half-maximal effect; tags tell the direction and shape of the fitted curve.

Row | SMILES | Potency | activity change, negative = inhibition
1 | CC(C)=CCC12Oc3cc(O)ccc3C1(O)Oc1cc3c(c(O)c1C2=O)C=CC(C)(C)O3 (stereo not drawn) | inconclusive: 50.1 µM [inhibitor, partial curve, poor fit] | 
2 | OC(CCN1CCC2(CC1)OCCO2)C(F)(F)F (stereo not drawn) |  | inactive: 9.19%
3 | CCN(c1ccccc1)S(=O)(=O)c1ccc2[nH]cc(C(=O)NC3CCCCC3)c(=O)c2c1 | inconclusive: 44.7 µM [inhibitor, partial curve, poor fit] | 
4 | CC(C)Nc1nc(N(c2ccccc2)c2ccccc2)nc(-n2ccnc2)n1 | inconclusive: 13.1 µM [inhibitor, partial curve, poor fit] | 
5 | COc1cc(NC(=O)c2cccc3c2C(=O)N(Cc2cccnc2)C3)cc(OC)c1OC | inconclusive: 50.1 µM [inhibitor, single point] | 
6 | O=C1[C@H]2[C@@H](c3ccccc3)N[C@]3(CCCN(Cc4ccc(C(F)(F)F)cc4)C3=O)[C@H]2C(=O)N1Cc1ccccc1 | inconclusive: 44.7 µM [inhibitor, partial curve, poor fit] | 
7 | CCC(C)Sc1ccc([C@@H]2[C@@H]3C(=O)N(C)C(=O)[C@@H]3[C@]3(C(=O)OC)CCCCN23)cc1OC (stereo partly drawn) | active: 35.5 µM | 
8 | O=C1c2cccc3c(N4CCCCC4)ccc(c23)C(=O)N1c1cccc(O)c1 | inconclusive: 50.1 µM [inhibitor, single point] | 
9 | O=C1CN(c2nc(-c3cccs3)nc3sc4c(c23)CCCC4)CCN1 | active: 52.1 µM | 
10 | Cc1ccc(S(=O)(=O)/C(C#N)=C/c2c(N3CCC(C(N)=O)CC3)nc3c(C)cccn3c2=O)cc1 | inconclusive: 26.1 µM [inhibitor, single point] | 
11 | CCCCC(C(=O)NC1CCCC1)N(C(=O)c1snc(C(N)=O)c1N)c1ccc(C)cc1 (stereo not drawn) | inconclusive: 18.5 µM [inhibitor, single point] | 
12 | CCCOc1ccc(C2c3c(-c4ccccc4O)n[nH]c3C(=O)N2Cc2cccnc2)cc1 (stereo not drawn) | inconclusive: 15.8 µM [inhibitor, full curve] | 
13 | CCc1cc(=O)oc2c3c(cc(OCC(=O)Nc4cccnc4)c12)OC(C)(C)CC3 | inconclusive: 50.1 µM [inhibitor, single point] | 
14 | Cc1cc(C(c2cc(C)c(N)c(C)c2)c2ccco2)cc(C)c1N | inconclusive: 63.1 µM [inhibitor, single point] | 
15 | S=C(Nc1ccccn1)NC1CCCC1 |  | inactive: 3.8%
16 | Cc1cc(C(=O)Nc2ccccc2C)c2ccccc2n1 |  | inactive: 20%
17 | CC(NC(=O)CN1C(=O)COc2ccc(Cl)cc21)c1ccccc1 (stereo not drawn) |  | inactive: -0.24%
18 | CCC(C)(C)NC(=O)C(c1ccccc1)N(Cc1cccs1)C(=O)Cn1nnc2ccccc21 (stereo not drawn) | inconclusive: 20.7 µM [inhibitor, full curve] | 
